# In paper PMC6919601, “Identification of Plasmodium dipeptidyl aminopeptidase allosteric inhibitors by high throughput screening” (PLoS ONE, 2019):
# Several values for one entry are separate records, joined by “and”; a condition that tells them apart may be missing. Identical values can stand only once. Out of some 110,000 compounds screened, about 230 (0.21%) showed an effect of 50% or more. The list shows a part of the results.
# Target: DPAP1 (Plasmodium falciparum, UniProt Q8IIJ9)
# Assay: primary screen, percent inhibition; read by cleavage of a fluorogenic dipeptide substrate; higher = more effect of the substance
# Design: species or system P. falciparum D10 trophozoite lysates; single well
# 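Note: 30 min substrate incubation versus DMSO and 10 µM JCP410 controls.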
# Sequence of DPAP1 (Q8IIJ9 whole entry, looked up): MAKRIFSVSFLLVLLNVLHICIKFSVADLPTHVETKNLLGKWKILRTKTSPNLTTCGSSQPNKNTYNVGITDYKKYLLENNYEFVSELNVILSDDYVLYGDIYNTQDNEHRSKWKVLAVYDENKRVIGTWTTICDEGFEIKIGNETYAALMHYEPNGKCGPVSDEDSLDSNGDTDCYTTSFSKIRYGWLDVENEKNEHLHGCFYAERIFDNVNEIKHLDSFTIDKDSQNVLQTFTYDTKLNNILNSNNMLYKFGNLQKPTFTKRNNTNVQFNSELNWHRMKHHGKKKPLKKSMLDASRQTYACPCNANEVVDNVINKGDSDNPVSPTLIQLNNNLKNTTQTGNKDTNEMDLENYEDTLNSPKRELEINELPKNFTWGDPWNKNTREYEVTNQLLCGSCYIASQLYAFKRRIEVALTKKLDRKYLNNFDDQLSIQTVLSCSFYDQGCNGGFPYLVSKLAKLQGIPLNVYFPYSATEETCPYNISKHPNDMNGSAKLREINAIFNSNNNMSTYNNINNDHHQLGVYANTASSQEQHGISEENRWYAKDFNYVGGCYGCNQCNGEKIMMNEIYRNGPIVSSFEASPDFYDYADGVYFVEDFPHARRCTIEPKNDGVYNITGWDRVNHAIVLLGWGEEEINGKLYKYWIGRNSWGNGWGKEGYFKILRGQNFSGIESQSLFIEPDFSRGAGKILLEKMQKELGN
row,SMILES,% Inhibition @ 10 uM
1,O=C(CCN1C(=O)c2ccccc2C1=O)NCCc1ccccc1,1.42%
2,CC1CCN(C2=NC(=O)/C(=C/c3ccccc3F)S2)CC1,0.408%
3,C=CCn1c(CNC(=O)Cc2ccccc2)nc2ccccc21,-6.5%
4,CC(C)(C)C(=O)Nc1cc(NC(=O)C(C)(C)C)cc(C(=O)O)c1,-3.52%
5,COc1ccc(C(=O)NCc2ccc(C(=O)O)cc2)cc1OC,-0.256%
6,CN(Cc1ccccc1)Cc1nc2c(c(=O)n(C)c(=O)n2C)n1Cc1ccc(F)cc1,2.9%
7,OC1CCN(c2ccc(-c3ccccc3)nn2)CC1,-2.97%
8,CC1=NC(C(F)(F)F)(C(F)(F)F)C2=C(CC(C)(C)CC2=O)N1C(C)c1ccccc1 (stereo not drawn),-11.3%
9,Cc1ccc(NC(=O)CSC(N)=O)cc1,1.44%
10,CC1=CC2=NC(=O)/C(=C\c3ccc(Sc4ccccc4)o3)C(=N)N2O1,0.317%
11,CN1C(C(=O)NCc2cccs2)=CC(c2ccco2)=NS1(=O)=O,-2.84%
12,CS(=O)(=O)N(CC(=O)Nc1ccc(S(=O)(=O)Nc2ccccc2)cc1)c1cccc(F)c1,2.44% and -0.884%
13,COc1ccccc1OCCN1C(=O)S/C(=C\c2ccc(N(C)C)cc2)C1=O,-1.26%
14,COc1ccc2oc(=O)c(C(=O)O)cc2c1,-2.41%
15,O=C(CSc1nc2ccccc2n1S(=O)(=O)c1ccccc1)N1CCCCC1,-0.318%
16,Cc1cccc(C(=O)Nc2ccc(F)cc2)c1,-5.65%
17,COc1ccc(Br)cc1C1CC(=O)N2CN(Cc3ccccc3)CSC2=C1C#N (stereo not drawn),60.8%
18,O=C(c1cc(-c2ccc(Br)cc2)nc2ccccc12)N1CCN(c2ncccn2)CC1,-5.1%
19,COc1ccc(C2C(C#N)=C(C)N=C3CC(c4ccc(Cl)cc4)CC(O)=C32)cc1 (stereo not drawn),0.673%
20,Cc1ccc(OCC(=O)NC(C)C)c(C)c1,5.12%
21,COc1ccc(NC(=O)c2ccccc2)cc1Cl,1.64%

row,SMILES,% Inhibition @ 10 uM
1,COc1ccc(CN2CCN(c3c(-c4ccc(Cl)cc4)c(=O)c3=O)CC2)c(OC)c1OC,-6.11%
2,c1ccc2c(c1)CC(N1CCCCC1)c1ccccc1N2 (stereo not drawn),-1.99%
3,CCCNC(=O)c1ccc(CS(=O)c2ccc(C)cc2)o1 (stereo not drawn),1.5%
4,CCc1c(C)c2cc3c4c(oc3cc2oc1=O)CCCC4,-1.15%
5,Cc1cccc(Oc2nc3ccccn3c(=O)c2/C=C(\C#N)C(=O)NCCCOC(C)C)c1C,0.315%
6,COc1ccccc1NC(=O)Cc1ccc(Cl)cc1,-4.7%
7,Cc1ccc(OCC(=O)NC2CCS(=O)(=O)C2)cc1 (stereo not drawn),4.98%
8,CC(NC(=O)C(=O)NCc1ccccn1)C(c1cccs1)N1CCN(Cc2ccccc2)CC1 (stereo not drawn),2.34%
9,CCC(C(=O)NCc1ccc(OC(C)C)cc1)n1sc2ccccc2c1=O (stereo not drawn),-5.1%
10,C=CCn1c(CSc2nc3ccccc3s2)nnc1SCC(=O)NCc1ccccc1,-4.97%
11,CCc1ccc(CNC(=O)C(C)n2nc(C)c3c(C)n(-c4ccccc4)nc3c2=O)cc1 (stereo not drawn),-10.4%
12,O=C(O)c1ccccc1-c1ccccc1C(=O)Nc1cccc2ccccc12,6.15%
13,CC(=O)N1CCc2c([nH]c3ccccc23)C1c1ccc(Cl)cc1 (stereo not drawn),0.815%
14,O=C(NCC1COc2ccccc2O1)c1ccc2c(Cl)c3c(nc2c1)CCCC3 (stereo not drawn),-0.0593%
15,Cc1nnc(SCC(=O)NC(C)c2ccccc2)c2nn(-c3ccccc3)c(C)c12 (stereo not drawn),4.56%
16,CC(C)(O)C(C)(C)C(O)c1ccccc1 (stereo not drawn),0.708%
17,O=C(O)C1Nc2c(cccc2C(F)(F)F)C2C=CCC12 (stereo not drawn),0.345%
18,CC(C)COc1ccc(C(=O)N2c3ccccc3CC2C)cc1 (stereo not drawn),-3.5%
19,Cc1cc(C)c(C#N)c(SCC(=O)Nc2c(C)cccc2C)n1,-6.38%
20,SC1=C2CCCCC2=NC2(CCCCC2)S1,0.222%
21,CCn1c(SCC(N)=O)nnc1-c1cc(OC)c(OC)c(OC)c1,-4.97%

row,SMILES,% Inhibition @ 10 uM
1,COc1cc(C(=O)Nc2nnc(CSCc3ccccc3)s2)cc(OC)c1OC,9.39%
2,Cc1cc(C)n(C(=O)c2cc([N+](=O)[O-])ccc2Cl)n1,-1.97%
3,O=C(/C=C/c1ccccc1Cl)N(Cc1cccc(F)c1)C1CCS(=O)(=O)C1 (stereo not drawn),-6.85%
4,Oc1nc(/C=C/c2cc3c(cc2Cl)OCO3)cc(C(F)(F)F)n1,0.392%
5,CCCOc1ccc(C2C(C(=O)OCc3ccccc3)=C(C)N=C3SCCC(=O)N32)cc1 (stereo not drawn),4.85%
6,CN(C)CCCN(C(=O)C1COc2ccccc2O1)c1nc2c(F)cccc2s1 (stereo not drawn),-1.07%
7,CC1=C(C)CC(C(=O)NC2CCCC2)C(C(=O)O)C1 (stereo not drawn),-4.15%
8,Cc1ccc(Cl)cc1NC(=O)CC1S/C(=N\c2ccc(F)cc2)N(C)C1=O (stereo not drawn),-3.69%
9,CC(C)N(Cc1ccccc1)C(=O)c1cc(S(=O)(=O)N2CCCC2)cn1C,-3.77%
10,CC(NC(=O)CSC1=NC(=O)C(c2ccccc2)C(=O)N1)c1ccccc1 (stereo not drawn),4.65%
11,COc1ccc(N2CCN(Cc3cc(C)ccc3C)CC2)cc1,-2.81%
12,Cc1ccc(-n2nc3c(=O)n(CC(=O)NCc4ccccc4Cl)nc(C)c3c2C)c(C)c1,3.24%
13,O=C(Nc1ccc(N2CCOCC2)cc1)c1ccco1,-3.63%
14,COc1ccc(Cl)cc1N(CC(=O)NCC1CCCO1)S(=O)(=O)c1ccccc1 (stereo not drawn),-0.088%
15,Cc1sc(NC(=O)CCCC(=O)O)c(C(N)=O)c1-c1ccccc1,-1.07%
16,COC(=O)C1=C(C)N(CCC2=CCCCC2)C(=O)/C1=C\c1ccc(C(=O)OC)cc1,-3.33%
17,Cc1cc(C=C2C(=O)c3ccccc3C2=O)c(C)n1-c1ccncc1,-6.87%
18,Cc1ccc(N(Cc2ccc(C(=O)Nc3ccc4c(c3)OCO4)cc2)S(C)(=O)=O)cc1C,8.06%
19,CCCN1CCN(CCCNC(=O)c2cnn(-c3ccccc3)c2-n2cccc2)CC1,-3.35%
20,O=C(O)C(Cc1c[nH]cn1)N1C(=O)c2ccccc2C1=O (stereo not drawn),5.54%
21,Fc1ccc(CN2CCN(c3ccccc3Cl)CC2)cc1F,-1.92%
